# In all, about 71,000 compounds went through this assay and about 1,800 (2.5%) were called active. Inconclusive results, whose numbers are uncertain, are shown with a selection of clear calls. The call rests on the fitted dose curve; in most records, active means well fitted activation curve with a large enough effect in the signal ratio, with a control signal flat (not every such curve was filed as active); inconclusive means small, poorly fitted or top-dose-only effect, or effect the other way, or a change in a side signal; inactive means flat fitted curve, though single readings scatter; the % refers to the signal ratio. Potencies of inconclusive entries are doubtful fits and often do not repeat.
# Test: Cell signaling CRE-BLA (Fsk stim); on activity change, negative = inhibition: % of control where 0% means no effect
# Conditions: CHO CRE-bla reporter (cAMP response element driving beta-lactamase), forskolin EC10, beta-lactamase ratio; activity change, negative = inhibition: at 38.2 µM (top of the series) unless noted
# Summary of the method: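 The 460nm/530nm emission ratio after CCF4 loading defined %Activity, from which AC50 values were obtained. CRE-bla CHO cells received compound dilution series together with an EC10 level of NKH 477 for 3 hours at 37 degrees Celsius.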
# Potency means the concentration at half of the fitted maximal effect; tags describe the fitted curve by direction and shape.
Structure (SMILES),"activity change, negative = inhibition",Potency
Nc1ccccc1-c1nnc(SCc2ccccc2F)[nH]c1=O,inactive,–
Fc1cccc(CN2CCCCCCC2)c1,inactive,–
FC(F)(F)c1cc(-c2ccc3c(c2)OCO3)nc(NCc2ccco2)n1,inconclusive: -7.09% [cytotoxic],–
Cc1nc2cnc(Nc3ccccc3)nc2n(C[C@H]2CCCO2)c1=O,–,"inconclusive: 10 µM [rising, partial curve]"
CCn1c(SCC(=O)c2ccc(NS(=O)(=O)c3ccccc3)cc2)nnc1-c1cccs1,inconclusive: -28.2%,–
O=C(CSc1nnc(C2COc3ccccc3O2)o1)Nc1nccs1 (stereo unspecified),inactive,–
O=c1c(-c2ccc(F)cc2)nc2cncnc2n1-c1ccccc1,–,"inconclusive: 10 µM [rising, partial curve]"
Cc1nn(-c2ccccc2)c2c1C1(C(=O)N(C(C)C)c3ccccc31)C(C#N)=C(N)O2 (stereo unspecified),inconclusive: -23%,–
O=C(Nc1ccc(Cl)cc1)C1CC2CCCC(C1)C2=O (stereo unspecified),inconclusive: -10.7% [at 7.6 µM],–
COc1ccc2[nH]c(=O)c(CN(C3CCCCC3)C(c3nnnn3Cc3ccco3)C(C)C)cc2c1 (stereo unspecified),inactive,–
CC(=O)N1[C@H](Cc2ccccc2)C=C[C@]1(C)C(=O)NCc1ccccn1,inactive,–
O=P(CCNCc1ccco1)(c1ccccc1)c1ccccc1,inactive,–
c1ccc2c(c1)C(=Nn1cnnc1)c1ccccc1-2,–,"inconclusive: 10 µM [rising, partial curve]"
COc1ccc(C(C(=O)NC2CCCCC2)N2CCC3(CC2)OCCO3)cc1 (stereo unspecified),inactive,–
C=CCc1ccc(OCC(O)CN2CCCCC2C)c(OC)c1 (stereo unspecified),–,"inconclusive: 5.01 µM [falling, single point]"
CCC1CCCCN1CCCNC(=O)c1ccc(CS(=O)(=O)Cc2ccccc2F)o1 (stereo unspecified),inconclusive: -3.14%,–
CCn1c(SCC(=O)Nc2nc(-c3ccccc3)cs2)nnc1-c1ccccc1O,inconclusive: -28.7%,–
C/C(C[n+]1ccccc1)=N\N=C(N)N,inconclusive: 2% [at 7.6 µM],–
COC(=O)C1=C(C)NC(C)=C(C(=O)OCCSc2ccccc2)[C@@H]1C,inconclusive: 11.6%,–
CCOC(=O)N1CCN(C(=O)c2cc3c(ccc4ccccc43)oc2=O)CC1,inconclusive: 11.1%,–
CCCc1ccc(OCc2nc(-c3ccc(NC(=O)c4ccco4)cc3)no2)cc1,–,"inconclusive: 12.6 µM [rising, single point]"
COc1ccc2[nH]cc(CCNc3ccnc(-c4c(C)noc4C)n3)c2c1,–,"inconclusive: 12.6 µM [rising, partial curve]"
CCn1c(COc2cccc(OC)c2)nnc1SCC(=O)Nc1cc(OC)ccc1OC,inconclusive: 7.67%,–
Cc1cccn2c(=O)c3cc(C(=O)NCCCn4ccnc4)n(C)c3nc12,–,"inconclusive: 10 µM [rising, partial curve]"
C[C@@H]1CCCN(C[C@@H](O)CN2CCCc3ccccc32)C1,inactive: -1.98% [at 7.6 µM],–
COc1cc2nc(-c3cccs3)oc(=O)c2cc1OC,inconclusive: 19.8%,–

Structure (SMILES),"activity change, negative = inhibition",Potency
C=C[C@@]1(C)CC(=O)[C@@]2(O)[C@@]3(C)[C@@H](O)CCC(C)(C)[C@@H]3[C@H](O)[C@H](OC(C)=O)[C@@]2(C)O1,–,"inconclusive: 0.0501 µM [rising, full curve]"
O=C(Nc1ccc2c(c1)OCO2)[C@@H]1[C@@H]2C(=O)N(C3CCCCC3)C(=O)[C@@H]2C2c3ccccc3C=CN21 (stereo partly specified),inconclusive: -23.7%,–
Cc1cc(C)c2[nH]c(=O)c(CN(CC3CCCO3)C(=O)C3CCCO3)cc2c1 (stereo unspecified),inactive,–
C=CCn1c(SCC(=O)Nc2cc(C)cc(C)c2)nnc1-c1cnccn1,–,"inconclusive: 2.51 µM [rising, full curve, poor fit]"
CCN(CC)S(=O)(=O)c1cccc(-c2nnc(SCCCC(=O)c3ccccc3)o2)c1,inconclusive: 21.7%,–
Cc1ccc(C)n1-c1ccc(N2CCOCC2)nc1,inactive,–
Cc1c(=O)n(OCc2ccccc2F)c2ccccc2[n+]1[O-],inconclusive: 1.58%,–
c1csc(-c2nc3nc4ccccc4nc3n2Cc2ccc3c(c2)OCO3)c1,–,active: 10 µM
CN1[C@@H]2CC(OC(=O)[C@@H](CO)c3ccccc3)C[C@H]1[C@H]1O[C@H]12 (stereo partly specified),inactive,–
CCOc1cc(S(=O)(=O)NCc2ccco2)c(OCC)cc1-n1cnnn1,inactive,–
COc1nc(C)ccc1-c1noc(-c2ccco2)n1,–,"inconclusive: 10 µM [rising, partial curve]"
Cc1cc(C)n2cc(CSCc3ccco3)nc2n1,inactive,–
O=C(c1cccc(F)c1)N1CCC2(CCCN(c3cccc(-c4ccccc4)c3)C2)CC1,inactive,–
CCN(CC(=O)Nc1ccc2c(c1)CCC2)Cc1nc2ccccc2c(=O)[nH]1,–,"inconclusive: 10 µM [rising, partial curve]"
Nc1nnc(SCc2ccc(F)cc2Cl)s1,inconclusive: -3.58%,–
COc1ccc(Oc2ncc3nc(-c4ccc(Cl)cc4)c(=O)n(CCC#N)c3n2)cc1,–,"inconclusive: 10 µM [rising, partial curve]"
Cc1csc(NC(=O)CSc2nnc(Cc3cccn3C)n2CCc2ccccc2)n1,inactive,–
NC(=O)c1ccccc1NC(=O)CN1CCOCC1,inconclusive: -11.8%,–
Cc1cc(=O)n2nc(N3CCCC(C(=O)N4CCN(c5ccccc5)CC4)C3)sc2n1 (stereo unspecified),–,"inconclusive: 1.26 µM [rising, full curve, poor fit]"
Cc1ccc(S(=O)(=O)N2CCC(C(=O)NC3CCCCCC3)CC2)cc1,inconclusive: -17.6% [at 7.6 µM],–
CN1CCN(CCCNN)CC1,inactive: 9.31% [at 7.6 µM],–
O/N=C1\CCCc2oc3c(c21)CCCC3,–,"inconclusive: 12.6 µM [rising, single point]"
COc1ccc(C)cc1NC(=O)c1cc2ccccc2o1,–,"inconclusive: 5.01 µM [falling, single point]"
O=C1OC(O)C(C(Cl)Cl)=C1Cl (stereo unspecified),–,"inconclusive: 1.26 µM [falling, full curve, poor fit]"
COc1ccc(NC(=O)CSc2nnc(-c3ccccc3C)n2N)cc1,inconclusive: 1.25%,–

# From PubChem BioAssay AID662 (National Center for Advancing Translational Sciences (NCATS), 2007)
